From PubChem BioAssay AID588855 (National Center for Advancing Translational Sciences (NCATS), 2011)
“And” between values parts separate entries of the source, which are not always exact repeats. Equal values may be shown once. Out of some 410,000 compounds screened, about 5,000 (1.2%) were called active. Inconclusive results, whose numbers are uncertain, are shown with a selection of clear calls. Calls come from the whole dose curve; as a rule, active = well fitted inhibition curve with a large enough effect; inconclusive = small, poorly fitted or top-dose-only effect; inactive = no such curve, though single readings can be large or run the other way. A potency beside an inconclusive call is a rough fit, not a confirmed value.

Experiment: qHTS for Inhibitors of TGF-b; note: nearly all actives have a fitted effect of over 65% in size
Settings: HepG2 CAGA-GFP TGF-b/SMAD3 reporter, GFP fluorescence, 18 h, TGF-beta stimulated, 500 pg/mL final; series mostly up to 46.1 µM
Summary of the method: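 Cell-based qHTS in HEPG2 carrying a CAGA-GFP Smad reporter; compounds added before 500 pg/mL final TGF-beta, 18 h incubation at 37 degrees C, GFP fluorescence quantified per cell by imaging cytometry.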
Potency is the fitted concentration of half-maximal effect; tags give direction and shape of the fitted curve.

Compound | Potency
COc1ccc(OC)c2sc(N(CCCN(C)C)C(=O)CCS(=O)(=O)c3ccccc3)nc12 | inconclusive: 7.94 µM [inhibitor, partial curve, poor fit]
Cc1cccc(-c2noc(-c3ccc(NCc4ccco4)c([N+](=O)[O-])c3)n2)c1 | inconclusive: 6.31 µM [inhibitor, single point]
Cc1ccc(C(C[N+](=O)[O-])c2c(C)[nH]n(-c3ccccc3)c2=O)cc1 (stereo unspecified) | inconclusive: 6.31 µM [inhibitor, partial curve, poor fit]
Cc1ccc2cc(CN(C(=O)c3ccco3)c3ccccc3)c(=O)[nH]c2c1 | inconclusive: 28.2 µM [inhibitor, single point]
Oc1ccc(NCc2cccc(OCc3ccc(F)cc3)c2)cc1 | inconclusive: 20 µM [inhibitor, partial curve, poor fit]
COc1ccc(C(CC(=O)N2CCN(c3ccccc3)CC2)c2c(OC)cc(OC)c3ccc(=O)oc23)cc1 (stereo unspecified) | inconclusive: 35.5 µM [inhibitor, single point]
O=C(NC1CC1)C1=C[C@@H](c2ccc3c(c2)OCO3)C[C@@H](OCCCCO)O1 | inconclusive: 6.31 µM [inhibitor, single point]
Cc1sc(NC(=O)C2CCCCC2C(=O)O)c(C(N)=O)c1-c1ccccc1 (stereo unspecified) | inactive
CCOC(=O)c1c(NC(=O)/C=C/C(=O)O)sc(C)c1-c1ccc(C(C)(C)C)cc1 | inconclusive: 28.2 µM [inhibitor, single point]
Cc1c(Cl)cccc1NC(=S)N1CCCCCC1 | inconclusive: 20 µM [inhibitor, single point]
CC(C)C(N)c1csc(Nc2cc(Oc3ccccc3)ncn2)n1 (stereo unspecified) | inactive
CC(C)c1ccc(NC(=O)Nc2cnccn2)cc1 | inactive
COc1ccccc1CN(Cc1cc2cc(C)ccc2[nH]c1=O)Cc1nnnn1Cc1ccco1 | inconclusive: 20 µM [inhibitor, single point]
COCCC(=O)N1CCCC(C(=O)c2ccc3c4c(cccc24)CC3)C1 (stereo unspecified) | inconclusive: 14.1 µM [inhibitor, single point]
Cn1c(SCC(=O)Nc2cccc(F)c2)nc2c([nH]c3ccccc32)c1=O | inactive
C=CCOC(/C=C/c1ccccc1)C[Si](C)(C)C (stereo unspecified) | inactive
CCCN(C(=O)c1cc(Cl)nc2ccccc12)c1c(N)n(Cc2ccccc2)c(=O)[nH]c1=O | inactive
CC(=O)c1c(C)[nH]c(C(=O)COC(=O)c2cc(S(=O)(=O)N(C)c3ccccc3)ccc2Cl)c1C | inconclusive: 0.794 µM [inhibitor, full curve, poor fit]
CN(c1ccc(S(=O)(=O)N2CCOCC2)cn1)C1CCCCC1 | inconclusive: 3.55 µM [inhibitor, single point]
N#Cc1c(N)nc2c(c1-c1cccc(O)c1)CCCCCC2 | inconclusive: 35.5 µM [inhibitor, single point]
CSc1ccccc1NC(=O)CN(C)C(=O)CCc1c[nH]c2ccccc12 | inactive
O=C(NC1CCCCC1)c1cc([N+](=O)[O-])[nH]n1 | inactive

Compound | Potency
CCC(C)NC(=O)c1ccccc1NC(=O)c1ccc(CSc2ccccc2)cc1 (stereo unspecified) | inconclusive: 22.4 µM [inhibitor, single point]
NC(=O)c1ccsc1NC(=O)COC(=O)c1cc(Cl)ccc1O | inactive
O=C(/C=C/c1cccc([N+](=O)[O-])c1)c1ccc2c(c1)OCCO2 | inconclusive: 35.5 µM [inhibitor, partial curve, poor fit]
CN(C)c1ccc(NC(=O)c2ccc(COc3cccc(Cl)c3)o2)cc1 | inactive
Cc1cc(C)nc(/N=C(\N)N(Cc2ccccc2)Cc2ccccc2)n1 | inconclusive: 35.5 µM [inhibitor, single point]
COc1ccc(-n2ccnc2SCC(=O)NCc2ccc(F)cc2)c(OC)c1 | inactive
CCC(=O)N1CCc2cc(Br)cc(S(=O)(=O)N3CCCC(C(=O)NCc4ccc(F)cc4)C3)c21 (stereo unspecified) | inconclusive: 22.4 µM [inhibitor, partial curve, poor fit]
Cn1cc(S(=O)(=O)N2CCCCCC2)cc1C(=O)N1CCN(c2cccc(C(F)(F)F)c2)CC1 | inconclusive: 0.708 µM [inhibitor, full curve, poor fit]
CCC(Sc1nncn1C)C(=O)Nc1nnc(-c2ccccc2Cl)s1 (stereo unspecified) | inactive
CCOc1ccccc1NC(=O)C1CCN(S(=O)(=O)c2ccc3[nH]c(=O)ccc3c2)CC1 | inactive
COC(=O)Nc1ccc(S(=O)(=O)N2CCC(Cc3ccccc3)CC2)cc1 | inconclusive: 15.8 µM [inhibitor, single point]
CCC1=NN(C(=O)Cc2ccc([N+](=O)[O-])cc2)C(O)(c2ccc(Br)cc2)C1 (stereo unspecified) | inconclusive: 11.2 µM [inhibitor, single point]
COc1cccc(C(=O)Nc2ncc3c(n2)CC(c2ccc(OC)cc2OC)CC3=O)c1 (stereo unspecified) | inconclusive: 6.31 µM [inhibitor, partial curve, poor fit]
O=C(COC(=O)c1nc(Cl)ccc1Cl)Nc1ccc2[nH]c(=O)[nH]c2c1 | inconclusive: 35.5 µM [inhibitor, single point]
COc1cc(C(=O)N(Cc2ccc(F)cc2)Cc2ccco2)cc(OC)c1OC | inactive
C=C(CC)C(=O)c1ccc(OCC(=O)O)c(Cl)c1Cl | inconclusive: 25.1 µM [inhibitor, single point] and inconclusive: 35.5 µM [inhibitor, single point]
COc1ccc(CNC(=O)CS(=O)Cc2nc(-c3ccc(OC)c(OC)c3)oc2C)cc1 (stereo unspecified) | inconclusive: 15.8 µM [inhibitor, single point]
Cc1ccc(N(CC(=O)Nc2cccc(Cl)c2C)S(=O)(=O)c2c(C)noc2C)cc1 | inconclusive: 31.6 µM [inhibitor, single point]
COc1ccc(-n2cc(C(=O)N(CCN(C)C)Cc3ccccc3)c3ccccc3c2=O)cc1 | inconclusive: 0.562 µM [inhibitor, full curve, poor fit]
COc1ccccc1N(CC(=O)N1CCN(c2ccc(F)cc2)CC1)S(=O)(=O)c1ccc(C)cc1 | inconclusive: 14.1 µM [inhibitor, single point]
Cc1ccc(S(=O)(=O)NC(CC(C)C)C(=O)NCC(C)(C)N2CCOCC2)cc1 (stereo unspecified) | inconclusive: 3.16 µM [inhibitor, partial curve, poor fit]
COc1ccc(CCNC(=O)CSc2nc3nc(C)c(Cc4ccc(C)cc4)c(C)n3n2)cc1OC | inconclusive: 6.31 µM [inhibitor, full curve]

Compound | Potency
Cn1c(C(=O)N2CCN(c3nc4ccccc4s3)CC2)cc2sccc21 | inactive
Cc1oc2c(F)c(F)c(F)c(F)c2c1S(=O)(=O)Nc1cccc(C(F)(F)F)c1 | active: 7.08 µM
Cc1ccc(C)c(OCCn2c(C3CC(=O)N(Cc4ccc(F)cc4)C3)nc3ccccc32)c1 (stereo unspecified) | active: 12.6 µM
COc1cc(/C=C2\SC(=O)NC2=O)ccc1Oc1cnccn1 | inconclusive: 5.01 µM [inhibitor, partial curve, poor fit]
Cc1ccc(NC(=S)c2nc3ccccc3[nH]2)cc1 | inconclusive: 15.8 µM [inhibitor, single point]
CCCCOC(=O)C1C2CCC(O2)C1C(=O)OCC (stereo unspecified) | inconclusive: 31.6 µM [inhibitor, single point]
Cc1ccc(OCC(=O)N(Cc2cccs2)C2CCS(=O)(=O)C2)cc1 (stereo unspecified) | inactive
CCCCCCC(=O)Nc1nc(C)c(-c2csc(Nc3ccc(Cl)cc3)n2)s1 | inconclusive: 14.1 µM [inhibitor, partial curve, poor fit]
COc1ccccc1C(=O)Nc1ccc2c(c1)CCCN2C(=O)c1ccccc1 | inactive
Cc1nonc1C(=O)N/N=C/c1ccc([N+](=O)[O-])o1 | inconclusive: 35.5 µM [inhibitor, single point]
NC(=O)[C@@H]1CC2(CC(c3cccc(NC(=O)CC(c4ccccc4)c4ccccc4)c3)=NO2)CN1C(=O)c1ccc(Cl)cc1 (stereo partly specified) | inconclusive: 15.8 µM [inhibitor, single point]
CCCOc1ccccc1NC(=O)c1c(-c2ccccc2)noc1C | inconclusive: 35.5 µM [inhibitor, single point]
COc1ccc(N(CC(=O)Nc2ccc(C)c(C)c2)S(=O)(=O)c2c(C)noc2C)cc1 | inconclusive: 35.5 µM [inhibitor, single point]
COC(=O)c1c(SC)nc2ccccc2c1OCc1ccc(Br)cc1 | inactive
CCc1ccc(S(=O)(=O)Nc2ccc(O)c3c(=O)cc(-c4ccccc4Cl)oc23)cc1 | inconclusive: 17.8 µM [inhibitor, single point]
CC(C)NC(=O)NC(=O)COC(=O)c1ccccc1O | inactive
Cc1ccc(NC(=O)CCn2nc(C)cc2C)cc1 | inactive
O=C1/C(=C/c2ccccn2)SC(=S)N1c1cccc(O)c1 | inconclusive: 10 µM [inhibitor, partial curve, poor fit]
COc1ccccc1C1NC(c2ccc3c(c2)OCO3)=CC(c2ccccc2O)N1 (stereo unspecified) | inconclusive: 35.5 µM [inhibitor, single point]
Cc1noc(C)c1COc1ccccc1C(=O)N1CCN(S(=O)(=O)c2ccccc2C(F)(F)F)CC1 | inconclusive: 10 µM [inhibitor, partial curve]
CCN(CC(=O)Nc1c(F)cccc1F)C(=O)c1ccc(COc2ccccc2)o1 | inactive
CCOc1ccc(C(=O)CCC(=O)NNC(=O)CCN2CCN(c3ccccc3)CC2)cc1 | inactive
